Test results from a collection of fitness landscapes (doi:10.1126/science.1257360).
This is one part of the list.

B1: PhoQ; a variant is named by its letters at X, in order, P23837 (parent)
chain: MKKLLRLFFPLSLRVRFLLATAAVVLVLSLAYGMVALIGYSVSFDKTTFRLLRGESNLFYTLAKWENNKLHVELPENIDKQSPTMTLIYDENGQLLWAQRDVPWLMKMIQPDWLKSNGFHEIEADVNDTSLLLSGDHSIQQQLQEVREDDDDAEMTHSVAVNVYPATSRMPKLTIVVVDTIPVELKSSYMVWSWFIYVLSANLLLVIPLLWVAAWWSLRPIEALAKEVRELEEHNRELLNPATTRELTSLVRNLNRLLKSERERYDKYRTTLTDLTHSLKTPLXXLQXXLRSLRSEKMSVSDAEPVMLEQISRISQQIGYYLHRASMRGGTLLSRELHPVAPLLDNLTSALNKVYQRKGVNISLDISPEISFVGEQNDFVEVMGNVLDNACKYCLEFVEISARQTDEHLYIVVEDDGPGIPLSKREVIFDRGQRVDTLRPGQGVGLAVAREITEQYEGKIVAGESMLGGARMEVIFGRQHSAPKDE

Variants of: B1
Experiment: enrichment ratio after two sorts for PhoP signalling (ratio (wild type AVST 3.29)); higher = more functional
Details: with PhoP (E. coli)

| Variant | enrichment ratio |
| --- | --- |
| CMIY | ≤ 0.25 |
| AEEL | ≤ 0.25 |
| KTTK | ≤ 0.25 |
| NNDW | ≤ 0.25 |
| VKFY | ≤ 0.25 |
| VCRF | ≤ 0.25 |
| FNMM | 4.61 |
| MSYC | 6.9 |
| TMKK | ≤ 0.25 |
| MTHP | ≤ 0.25 |
| HRCH | ≤ 0.25 |
| PKYH | ≤ 0.25 |
| VSFT | ≤ 0.25 |
| RYEE | ≤ 0.25 |
| ATDP | ≤ 0.25 |
| DGLM | ≤ 0.25 |
| DHVR | ≤ 0.25 |
| SLHP | ≤ 0.25 |
| SVQC | 4.27 |
| KYQF | ≤ 0.25 |
| LFTA | ≤ 0.25 |
| PFHW | ≤ 0.25 |
| NWNP | ≤ 0.25 |
| EPPR | ≤ 0.25 |

| Variant | enrichment ratio |
| --- | --- |
| QHNV | ≤ 0.25 |
| TEHL | 12.5 |
| EHKH | ≤ 0.25 |
| VIDC | ≤ 0.25 |
| GTHD | ≤ 0.25 |
| TMTR | ≤ 0.25 |
| TKYN | ≤ 0.25 |
| HHDD | ≤ 0.25 |
| AKIY | 6.04 |
| KVFP | ≤ 0.25 |
| EYFC | ≤ 0.25 |
| AGII | 33.2 |
| IVNM | ≤ 0.25 |
| KIYD | ≤ 0.25 |
| ERTI | ≤ 0.25 |
| WCRA | ≤ 0.25 |
| DGNF | ≤ 0.25 |
| AEDC | ≤ 0.25 |
| PGHR | ≤ 0.25 |
| WNLH | 0.602 |
| LMIG | ≤ 0.25 |
| SLCR | 8.12 |
| PLDV | ≤ 0.25 |
| SWIV | ≤ 0.25 |

| Variant | enrichment ratio |
| --- | --- |
| NCLG | 0.394 |
| ITML | 8.63 |
| NDEG | ≤ 0.25 |
| PSEV | ≤ 0.25 |
| YNMH | 0.275 |
| NCAM | ≤ 0.25 |
| IGFT | ≤ 0.25 |
| QPWH | ≤ 0.25 |
| HHCP | ≤ 0.25 |
| FSPR | ≤ 0.25 |
| NHYQ | ≤ 0.25 |
| WYSL | ≤ 0.25 |
| VCWL | ≤ 0.25 |
| NNGA | ≤ 0.25 |
| PLQD | ≤ 0.25 |
| YVMR | ≤ 0.25 |
| DTSS | ≤ 0.25 |
| SQSP | ≤ 0.25 |
| EFAM | ≤ 0.25 |
| FLYE | ≤ 0.25 |
| HQLI | ≤ 0.25 |
| MRHI | ≤ 0.25 |
| PTVE | ≤ 0.25 |
| FQFH | ≤ 0.25 |

| Variant | enrichment ratio |
| --- | --- |
| FPFD | ≤ 0.25 |
| YMSK | ≤ 0.25 |
| PGHG | ≤ 0.25 |
| DSQQ | ≤ 0.25 |
| SEEQ | ≤ 0.25 |
| SVTN | 16.4 |
| KMDW | ≤ 0.25 |
| KKHM | ≤ 0.25 |
| HMRW | ≤ 0.25 |
| KSQP | ≤ 0.25 |
| KSWM | ≤ 0.25 |
| PSMA | ≤ 0.25 |
| WVIP | ≤ 0.25 |
| SHGP | ≤ 0.25 |
| DPSC | ≤ 0.25 |
| FDCL | ≤ 0.25 |
| SWPM | ≤ 0.25 |
| KYNS | ≤ 0.25 |
| DTFW | ≤ 0.25 |
| NTSE | ≤ 0.25 |
| PIAC | ≤ 0.25 |
| VENR | ≤ 0.25 |
| LGFE | ≤ 0.25 |
| GFVV | ≤ 0.25 |

| Variant | enrichment ratio |
| --- | --- |
| TTRS | ≤ 0.25 |
| IQPS | ≤ 0.25 |
| HGHC | ≤ 0.25 |
| TEMG | 19.1 |
| HEWM | ≤ 0.25 |
| SATL | 6.87 |
| TIEI | 2.86 |
| KSGP | ≤ 0.25 |
| DADH | ≤ 0.25 |
| YKSD | ≤ 0.25 |
| ELMM | ≤ 0.25 |
| YAIN | ≤ 0.25 |
| SYTI | 0.274 |
| MFMY | ≤ 0.25 |
| GQTL | ≤ 0.25 |
| EYGY | ≤ 0.25 |
| PNPS | ≤ 0.25 |
| PCQK | ≤ 0.25 |
| FVKH | ≤ 0.25 |
| HDVG | ≤ 0.25 |
| TYWC | ≤ 0.25 |
| GVDK | ≤ 0.25 |
| YLDD | ≤ 0.25 |
| SLSE | 1.48 |

| Variant | enrichment ratio |
| --- | --- |
| PHKC | ≤ 0.25 |
| PFTN | ≤ 0.25 |
| IPRD | ≤ 0.25 |
| PQQV | ≤ 0.25 |
| DFRQ | ≤ 0.25 |
| AICV | 15.3 |
| RSHI | 0.251 |
| PEHL | ≤ 0.25 |
| PCGI | ≤ 0.25 |
| VPIP | ≤ 0.25 |
| CILF | ≤ 0.25 |
| LCAH | ≤ 0.25 |
| IQLC | ≤ 0.25 |
| EIWS | ≤ 0.25 |
| KGKG | ≤ 0.25 |
| SFNQ | ≤ 0.25 |
| ARVS | ≤ 0.25 |
| IVYT | ≤ 0.25 |
| PSCD | ≤ 0.25 |
| PTEG | ≤ 0.25 |
| HHAG | ≤ 0.25 |
| RFHC | ≤ 0.25 |
| RSQV | ≤ 0.25 |
| WVSH | ≤ 0.25 |

| Variant | enrichment ratio |
| --- | --- |
| LEKF | ≤ 0.25 |
| VLQK | ≤ 0.25 |
| TLSA | 7.98 |
| FDNL | ≤ 0.25 |
| TATH | 3.27 |
| QVPA | ≤ 0.25 |
| LRIQ | ≤ 0.25 |
| DWFI | ≤ 0.25 |
| QTMG | ≤ 0.25 |
| DWNE | ≤ 0.25 |
| LQAH | ≤ 0.25 |
| AGAN | 3.14 |
| KIMW | ≤ 0.25 |
| MNFA | ≤ 0.25 |
| IWEW | ≤ 0.25 |
| YRPC | ≤ 0.25 |
| SNEG | ≤ 0.25 |
| PYGM | ≤ 0.25 |
| YEWD | ≤ 0.25 |
| DRHV | ≤ 0.25 |
| FKTW | ≤ 0.25 |
| ESGV | ≤ 0.25 |
| RRQM | ≤ 0.25 |
| TDQA | ≤ 0.25 |

| Variant | enrichment ratio |
| --- | --- |
| NEYV | ≤ 0.25 |
| HKTD | ≤ 0.25 |
| EAVV | ≤ 0.25 |
| PIAQ | ≤ 0.25 |
| HRYF | ≤ 0.25 |
| PHMR | ≤ 0.25 |
| RCTQ | ≤ 0.25 |
| AKPG | ≤ 0.25 |
| WSLE | ≤ 0.25 |
| DWST | ≤ 0.25 |
| HSYL | 0.277 |
| FTQM | ≤ 0.25 |
| TPMC | ≤ 0.25 |
| RTGN | ≤ 0.25 |
| ALLN | 6.8 |
| QMVL | ≤ 0.25 |
| FQQC | ≤ 0.25 |
| LYWN | ≤ 0.25 |
| VILM | 1.31 |
| IGPT | ≤ 0.25 |
| QNII | ≤ 0.25 |
| EIGN | ≤ 0.25 |
| SCHV | ≤ 0.25 |
| FKVK | ≤ 0.25 |

| Variant | enrichment ratio |
| --- | --- |
| IESP | ≤ 0.25 |
| CYYL | ≤ 0.25 |
| FQRN | ≤ 0.25 |
| RDQF | ≤ 0.25 |
| MCMF | 4.63 |
| IQAN | ≤ 0.25 |
| LFNQ | ≤ 0.25 |
| WKCT | ≤ 0.25 |
| FSLN | 9.67 |
| DCCY | ≤ 0.25 |
| RHIQ | ≤ 0.25 |
| KMSS | ≤ 0.25 |
| TQFC | 8.5 |
| PEYD | ≤ 0.25 |
| HFFA | ≤ 0.25 |
| QWFP | ≤ 0.25 |
| ADDC | ≤ 0.25 |
| LQML | ≤ 0.25 |
| YPFF | ≤ 0.25 |
| VGQG | ≤ 0.25 |
| EPNS | ≤ 0.25 |
| GLMK | ≤ 0.25 |
| IQYP | ≤ 0.25 |
| YNVL | ≤ 0.25 |

| Variant | enrichment ratio |
| --- | --- |
| IIRT | ≤ 0.25 |
| PFWV | ≤ 0.25 |
| FVLC | 1.1 |
| STVR | ≤ 0.25 |
| DGKT | ≤ 0.25 |
| YIAH | 0.333 |
| AMFY | ≤ 0.25 |
| TPQR | ≤ 0.25 |
| TAWG | 6 |
| RQNW | ≤ 0.25 |
| QFMV | ≤ 0.25 |
| ANCT | 21 |
| PPSW | ≤ 0.25 |
| ERSK | ≤ 0.25 |
| DKRI | ≤ 0.25 |
| EVSV | ≤ 0.25 |
| YDNH | ≤ 0.25 |
| GCKG | ≤ 0.25 |
| QFNK | ≤ 0.25 |
| DMLF | ≤ 0.25 |
| AITA | 3.12 |
| RPLH | ≤ 0.25 |
| PFKN | ≤ 0.25 |
| NLKI | ≤ 0.25 |

| Variant | enrichment ratio |
| --- | --- |
| RYSD | ≤ 0.25 |
| SYDY | ≤ 0.25 |
| SQPD | ≤ 0.25 |
| TQAK | ≤ 0.25 |
| DQWS | ≤ 0.25 |
| QQAW | ≤ 0.25 |
| WNNM | ≤ 0.25 |
| VMAV | ≤ 0.25 |
| AFKH | ≤ 0.25 |
| TMMM | 6.28 |
| FDNR | ≤ 0.25 |
| GDPF | ≤ 0.25 |
| SLIP | ≤ 0.25 |
| VLYN | ≤ 0.25 |
| QKSC | ≤ 0.25 |
| NWHY | ≤ 0.25 |
| GCMM | ≤ 0.25 |
| YFVQ | ≤ 0.25 |
| ELHF | ≤ 0.25 |
| HTPL | ≤ 0.25 |
| NNYP | 0.69 |
| NDAV | ≤ 0.25 |
| MPNL | ≤ 0.25 |
| HLDP | ≤ 0.25 |

| Variant | enrichment ratio |
| --- | --- |
| IVVF | ≤ 0.25 |
| LMNI | ≤ 0.25 |
| LGPM | ≤ 0.25 |
| NHTS | ≤ 0.25 |
| YSQY | ≤ 0.25 |
| HKKT | ≤ 0.25 |
| HLMY | ≤ 0.25 |
| ISKM | ≤ 0.25 |
| IHLP | ≤ 0.25 |
| PQCF | ≤ 0.25 |
| SACM | 9.07 |
| VWTR | ≤ 0.25 |
| MCAH | 2.04 |
| TDPP | ≤ 0.25 |
| DKWR | ≤ 0.25 |
| CKIS | ≤ 0.25 |
| NYSV | ≤ 0.25 |
| IQDP | ≤ 0.25 |
| RTNP | ≤ 0.25 |
| IGCP | ≤ 0.25 |
| PNWP | ≤ 0.25 |
| SKVW | ≤ 0.25 |
| DIKN | ≤ 0.25 |
| IFCM | ≤ 0.25 |

| Variant | enrichment ratio |
| --- | --- |
| INAE | ≤ 0.25 |
| LASK | ≤ 0.25 |
| INPN | ≤ 0.25 |
| ILVH | ≤ 0.25 |
| IHLM | ≤ 0.25 |
| QNNV | ≤ 0.25 |
| KCNR | ≤ 0.25 |
| IGDM | ≤ 0.25 |
| QFSF | ≤ 0.25 |
| SPMF | ≤ 0.25 |
| QDWS | ≤ 0.25 |
| MERI | ≤ 0.25 |
| YRWK | ≤ 0.25 |
| AGQH | ≤ 0.25 |
| TVAQ | 4.72 |
| RMRF | ≤ 0.25 |
| QHVW | ≤ 0.25 |
| INDM | ≤ 0.25 |
